For 1 substance, binding results are on record in article PMC10405735.

Amino acid sequences for entries named in this document (tags omitted). A change or cut given only in a name is not applied to a line headed by its entry. Residues count along the entry.
UniProt O15218: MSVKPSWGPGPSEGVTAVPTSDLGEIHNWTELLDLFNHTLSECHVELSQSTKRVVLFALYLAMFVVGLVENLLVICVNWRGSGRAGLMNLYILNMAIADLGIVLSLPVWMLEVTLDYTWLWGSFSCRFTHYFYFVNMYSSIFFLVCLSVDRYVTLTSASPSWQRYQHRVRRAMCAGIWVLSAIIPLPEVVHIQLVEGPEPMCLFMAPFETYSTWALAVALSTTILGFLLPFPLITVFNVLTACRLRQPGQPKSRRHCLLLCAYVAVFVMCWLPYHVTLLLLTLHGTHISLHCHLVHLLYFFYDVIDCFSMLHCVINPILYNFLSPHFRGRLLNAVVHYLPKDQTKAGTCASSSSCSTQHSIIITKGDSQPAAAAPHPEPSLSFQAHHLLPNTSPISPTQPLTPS
UniProt P25106: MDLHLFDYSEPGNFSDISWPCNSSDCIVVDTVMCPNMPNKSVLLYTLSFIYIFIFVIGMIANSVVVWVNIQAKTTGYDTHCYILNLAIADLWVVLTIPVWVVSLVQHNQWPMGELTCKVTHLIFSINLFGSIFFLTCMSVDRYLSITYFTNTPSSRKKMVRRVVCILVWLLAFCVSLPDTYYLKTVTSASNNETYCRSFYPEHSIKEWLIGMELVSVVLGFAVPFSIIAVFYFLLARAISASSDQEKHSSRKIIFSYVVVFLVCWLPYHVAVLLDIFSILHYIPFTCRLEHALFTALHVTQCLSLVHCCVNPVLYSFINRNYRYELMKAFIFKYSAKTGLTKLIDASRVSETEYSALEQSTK
UniProt Q9JIL2, residues 17-130: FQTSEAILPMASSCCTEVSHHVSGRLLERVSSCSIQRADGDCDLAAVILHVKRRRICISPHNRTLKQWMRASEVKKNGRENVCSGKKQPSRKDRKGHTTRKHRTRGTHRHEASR

Results are given in words; binding and its absence hold for the method and conditions named. Some binding calls cover weakened binding; strength is not graded here. For part of these data: Tags and fused reporters may be left off the sequences shown.

The target of test [1] is T1, mGPR182 T2A GFP in HEK293 cells (mouse) (UniProt P43142).
T1 sequence: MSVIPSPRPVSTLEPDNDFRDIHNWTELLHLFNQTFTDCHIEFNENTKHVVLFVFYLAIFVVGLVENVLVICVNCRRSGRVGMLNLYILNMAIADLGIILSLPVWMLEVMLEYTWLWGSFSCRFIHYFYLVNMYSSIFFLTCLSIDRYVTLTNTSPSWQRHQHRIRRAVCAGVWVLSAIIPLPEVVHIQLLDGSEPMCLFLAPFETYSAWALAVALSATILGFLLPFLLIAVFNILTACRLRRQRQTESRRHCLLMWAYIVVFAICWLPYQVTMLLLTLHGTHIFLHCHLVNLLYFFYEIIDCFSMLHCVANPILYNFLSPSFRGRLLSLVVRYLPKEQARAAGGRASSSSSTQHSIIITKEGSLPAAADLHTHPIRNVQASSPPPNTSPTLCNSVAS
Put plainly: uptake of fluorescent chemokine by confocal microscopy; HEK293 cells expressing mGPR182 or hGPR182 (T2A GFP) incubated with 100-200 nM fluorescent chemokine at 37°C, fixed and imaged (3D reconstruction), or imaged live; only the binder purified.

The target of test [2] is T2, hACKR4 (T2A GFP) in 300.19 pre-B cells (human) (UniProt Q9NPB9).
T2 sequence: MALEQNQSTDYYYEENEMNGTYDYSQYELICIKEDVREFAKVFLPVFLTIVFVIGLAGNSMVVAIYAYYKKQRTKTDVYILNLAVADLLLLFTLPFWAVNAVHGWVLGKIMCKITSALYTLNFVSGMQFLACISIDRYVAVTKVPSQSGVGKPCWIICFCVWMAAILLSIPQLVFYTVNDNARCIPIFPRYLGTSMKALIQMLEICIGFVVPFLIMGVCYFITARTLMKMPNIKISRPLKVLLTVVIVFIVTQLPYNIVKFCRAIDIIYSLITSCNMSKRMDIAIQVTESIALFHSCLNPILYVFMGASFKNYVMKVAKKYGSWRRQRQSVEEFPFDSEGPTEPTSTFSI
The test is described as follows: flow cytometry on cells; binding: 300.19 pre-B cells stably expressing the receptor (T2A GFP) incubated with 100 or 200 nM fluorescently labelled chemokine at 4°C for 45 min; MFI of parental cells subtracted; only the binder purified. A general note: A flow cytometer gives signals particle by particle.

Test [3] concerns the target T3, ACKR2 (T2A GFP) in 300.19 pre-B cells (UniProt O00590).
T3 sequence: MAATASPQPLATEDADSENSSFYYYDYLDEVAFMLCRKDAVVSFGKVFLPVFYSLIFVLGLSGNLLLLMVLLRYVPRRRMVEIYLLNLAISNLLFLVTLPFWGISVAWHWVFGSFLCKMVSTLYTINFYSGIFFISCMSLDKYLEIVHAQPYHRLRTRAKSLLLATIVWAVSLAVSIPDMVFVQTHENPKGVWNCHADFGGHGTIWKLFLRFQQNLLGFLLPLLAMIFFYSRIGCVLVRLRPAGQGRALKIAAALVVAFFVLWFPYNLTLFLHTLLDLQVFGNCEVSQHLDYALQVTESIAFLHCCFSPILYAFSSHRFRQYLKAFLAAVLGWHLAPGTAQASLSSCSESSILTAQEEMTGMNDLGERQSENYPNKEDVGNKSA
Described as above.

Test [4] concerns the target T4, ACKR1 (T2A GFP) in 300.19 pre-B cells (UniProt Q16570).
T4 sequence: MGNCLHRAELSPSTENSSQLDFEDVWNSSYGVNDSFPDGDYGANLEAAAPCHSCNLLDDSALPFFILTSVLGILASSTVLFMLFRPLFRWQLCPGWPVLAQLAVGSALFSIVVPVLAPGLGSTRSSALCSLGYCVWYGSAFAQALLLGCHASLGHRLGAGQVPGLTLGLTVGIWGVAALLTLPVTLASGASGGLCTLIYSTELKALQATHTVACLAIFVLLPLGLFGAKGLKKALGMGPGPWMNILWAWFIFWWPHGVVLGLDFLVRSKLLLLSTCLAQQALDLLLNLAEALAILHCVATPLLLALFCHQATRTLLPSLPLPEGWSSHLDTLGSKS
Described as above.

The target in test [5] is T5, murine GPR182 (mGPR182), expressed from mGPR182 T2A GFP in 300.19 pre-B cells (mouse) (UniProt P43142).
T5 sequence: T1 sequence
The test is described as above.

Test [6] concerns the target human GPR182 (hGPR182), expressed from hGPR182 T2A GFP in 300.19 pre-B cells (human) (UniProt O15218). Described as above.
For test [7], the target named is hACKR3 (T2A GFP) in 300.19 pre-B cells (human) (UniProt P25106). Described as above.
The target in test [8] is T5, murine GPR182 (mGPR182), expressed from mGPR182 T2A GFP in 300.19 pre-B cells (mouse). Put plainly: flow cytometry on cells; competition binding at 4°C: 300.19 cells expressing mGPR182 or hGPR182 with 3 nM fluorescent chemokine and increasing concentrations of its unlabeled counterpart, 45 min; only the binder purified.
Test [9] deals with human GPR182 (hGPR182), expressed from hGPR182 T2A GFP in 300.19 pre-B cells (human) (UniProt O15218). Described as above.

For the substance “mCCL28, fluorescently labelled (from UniProt Q9JIL2 17-130) (ligand)”, the binding result in test [1] is on record as “binds”; in [2], “no binding (tested: 100 nM)”; in [3], “no binding (tested: 100 nM)”; in [4], “no binding (tested: 100 nM)”; in [5], “binds”; in test [6], “binds”. Besides, the binding entry in test [7] is “no binding (tested: 100 nM)”; in [8] it was “binds”; in test [9], “binds”.
